From US20240226057A1, “NEW USE OF MONENSIN” (MAST PHARMA AB, priority 2021, published 2024)

Test system: tracheal segments from house dust mite (HDM) sensitized guinea pigs
Experiment: Antigen-induced bronchoconstriction ex vivo (organ bath)

CC[C@]1([C@H]2O[C@H]([C@@H]3O[C@](O)(CO)[C@@H](C)C[C@H]3C)C[C@H]2C)CC[C@@H]([C@@]2(C)CC[C@@]3(C[C@@H](O)[C@H](C)[C@H]([C@H](C)[C@H](OC)[C@H](C)C(=O)O)O3)O2)O1 [Monensin, 4-[2-[5-ethyl-5-[5-[6-hydroxy-6-(hydroxymethyl)-3,5-dimethyl-oxan-2-yl]-3-methyl-oxolan-2-yl]oxolan-2-yl]-9-hydroxy-2,8-dimethyl-1,6-dioxaspiro[4.5]dec7-yl]-3-methoxy-2-methyl-pentanoic acid]
Gross lung tissue damage ex vivo: does not cause any gross lung tissue damage | Carbachol-induced contraction, 1 μM (1 μM monensin, 48 hours): did not affect | Carbachol concentration response curve, 10 μM (10 μM monensin, 48 hours): decreased | HDM-induced contraction (segments cultured 48 hours with 1 or 10 μM (both concentrations)): almost completely abolished
